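Test compounds were applied to cells in 96-well plates for 48 hours at 5 doses. GI50: concentration for 50% inhibition of growth.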 The source made the active and inactive calls. Rule as the data show it: active = GI50 up to about 1.1 µM and inactive = higher.
The compounds below were run on NCI-H322M (assay: growth of human tumour cells (NCI), 48 h).
For `Fc1ccc2c(c1)SC1Oc3ccccc3-c3c1c-2nn3-c1ccccc1` (configuration not stated), the GI50 was inactive: > 100 µM.
`Nc1nc(-c2ccccc2)cc(-c2ccccc2O)n1` was tested, and the GI50 was inactive: 7.83 µM.
With `COc1ccc(-c2cn3ccsc3n2)cc1` the GI50 was inactive: > 100 µM.
With `O=C1CCC(c2ccccc2)(c2ccccc2)CC1` the GI50 was inactive: 71.1 µM.
With `N/C(=N\O)N/N=C/c1ncccc1O` the GI50 was inactive: 18.3 µM.
In the case of `CCc1ccc(CCN2CCCCC2)nc1`, the GI50 is reported as inactive: > 100 µM.
With `CC(=O)/C(=N\N=C(N)N)c1ccccc1` the GI50 was inactive: > 100 µM.
With `Nc1nc(N)nc(CC(=O)O)n1` the GI50 was inactive: > 100 µM.
For `CC1(Br)Cc2ccccc2C1=O` (configuration not stated), the GI50 was inactive: 12.9 µM.
For `CSc1nc(=S)[nH]c2c1c(C)nn2-c1ccccc1`, the GI50 was inactive: 20.1 µM.
In the case of `CCc1ccc(Cc2ccc(CC)c(NC(=O)C(=O)Cc3nc4ccccc4nc3C)c2CC)c(CC)c1NC(=O)C(=O)Cc1nc2ccccc2nc1C`, the GI50 is reported as inactive: 53.8 µM.
For `O=C(CC(C(=O)c1cccs1)c1ccsc1)c1ccsc1` (configuration not stated), the GI50 was inactive: 32.1 µM.
For `CN(C)CCCNC(=O)N/N=C/c1ccccn1`, the GI50 was inactive: > 10 µM.
For `CC1CC#CCOC(=O)CCCC1=O` (configuration not stated), the GI50 was inactive: > 100 µM.
`N#Cc1c(O)c(/C=N/c2ncccn2)c(=O)n2c1[nH]c1ccccc12` was tested, and the GI50 was inactive: > 100 µM.
In the case of `COc1ccc(OC)c2c(C(=O)O)c(C(C)c3ccccc3)ccc12` (configuration not stated), the GI50 is reported as inactive: > 100 µM.
For `CC1=C(C(=O)Nc2cccc3c2C(=O)NC3=O)CC(C(=O)Nc2cccc3c2C(=O)NC3=O)=C(C)N1`, the GI50 was inactive: > 100 µM.
In the case of `N#Cc1c(N2CCOCC2)[nH]c(=O)c(C(c2c(Cl)cccc2Cl)c2c(O)c(C#N)c(N3CCOCC3)[nH]c2=O)c1O`, the GI50 is reported as inactive: 19.4 µM.
With `COc1ccccc1NCC(=O)Nn1c(C)nc2ccc(S(=O)(=O)Nc3ccccc3OC)cc2c1=O` the GI50 was inactive: > 100 µM.
For `CC(/C=N\NC(=S)N1CCCCC1)=N/NC(=S)N1CCCCC1`, the GI50 was inactive: 1.29 µM.
In the case of `CN(C)c1ncnc2c1ncn2C1C=CC(COS(N)(=O)=O)C1` (configuration not stated), the GI50 is reported as inactive: > 100 µM.
`O=S1(=O)CSc2ccc3ccccc3c2-c2c1ccc1ccccc21` was tested, and the GI50 was inactive: > 100 µM.
For `Cc1c(/C=N/NC(=S)N2CCCCC2)c(=O)n(-c2ccccc2)n1C`, the GI50 was inactive: > 100 µM.
With `Cc1nc2sc3ccccc3n2c(=O)c1/N=N/c1ccc(Cl)cc1` the GI50 was inactive: > 100 µM.
In the case of `CN(CCc1ccc(Cl)c(Cl)c1)[C@H]1CCCC[C@H]1N1CCCC1`, the GI50 is reported as inactive: > 100 µM.
`COc1ccc(CN2CC(C)(C)C2=O)c(OC)c1` was tested, and the GI50 was inactive: > 100 µM.
In the case of `Fc1cccc(F)c1C1SCc2nc3cc4ccccc4cc3n21` (configuration not stated), the GI50 is reported as inactive: 45.2 µM.
In the case of `Clc1ccccc1-c1nnc2c(-c3ccccc3)nc3ccccc3n12`, the GI50 is reported as inactive: 44.2 µM.
For `CC(=O)NNC(=S)N/C=C1/C(=O)C=C(C)OC1=O`, the GI50 was inactive: > 100 µM.
For `COC1(OC)CC2C(=O)N(Cc3ccccc3)C1C(S(=O)(=O)c1ccccc1)C2S(=O)(=O)c1ccccc1` (configuration not stated), the GI50 was inactive: 87.1 µM.
For `O=c1n(-c2ccccc2)c(=O)n2n1C1C=CC2C2C(C1)C2(Cl)Cl` (configuration not stated), the GI50 was inactive: > 100 µM.
In the case of `C=Cc1ccccc1C1C(C(=O)OCC)=C(C)N=C2OC(C(=O)OC)C(=O)N21` (configuration not stated), the GI50 is reported as inactive: > 100 µM.
`CN1C(=O)C23CC4=CC=CC(O)C4N2C(=O)C1(CO)SS3` (configuration not stated) was tested, and the GI50 was active: 0.193 µM.
With `O=C(NCc1cccc(C(F)(F)F)c1)c1cc2sccc2nc1C(F)(F)F` the GI50 was inactive: 38.2 µM.
In the case of `O=C1c2ccccc2C2(O)N(c3ccccc3)C(=S)N(c3ccccc3)C12O` (configuration not stated), the GI50 is reported as inactive: > 100 µM.
With `CCCCCCCCCCCCCCCCCCNc1ccn(C2OC(CO)C(OP(=O)(O)OCC(O)COP(=O)(O)OCC3OC(n4cc(F)c(NCCCCCCCCCCCCCCCCCC)nc4=O)CC3O)C2O)c(=O)n1` (configuration not stated) the GI50 was inactive: > 50 µM.
`CCOc1ccc2nc(NC(=O)C(=O)C(C#N)CC(C)(C)C=O)sc2c1` (configuration not stated) was tested, and the GI50 was inactive: > 100 µM.
For `[N-]=[N+]=NC1(Cc2ccccc2)C(=O)c2cccc3c2N(CCC3)C1=O` (configuration not stated), the GI50 was inactive: > 100 µM.
With `C=C1C(=O)OC2/C=C(\C)C(=O)CC3OC(C)(C)OC3(C)CC(OC(=O)/C(C)=C/C)C12` (configuration not stated) the GI50 was inactive: > 74.8 µM.
With `Cc1ccc(C(=O)O)cc1NC(=O)c1cc(/C=C/c2ccccc2)[nH]c(=S)n1` the GI50 was inactive: > 100 µM.
`CCCCCCCCCCCCCCCCCCOCC(CCP(=O)(CP(=O)(O)O)Oc1ccccc1)OCCCCCCCCCCCCCCCCCC` (configuration not stated) was tested, and the GI50 was inactive: > 100 µM.
For `Cc1n[nH]c(C(F)(F)F)c1/N=N/N1CCOCC1`, the GI50 was inactive: 15.8 µM.
For `CC(=O)O[C@H]1C(=O)[C@@]2(C)[C@H]([C@H](OC(=O)c3ccncc3)[C@]3(O)C[C@H](OC(=O)[C@H](O)[C@@H](NC(=O)c4ccccc4)c4ccccc4)C(C)=C1C3(C)C)[C@]1(OC(C)=O)CO[C@@H]1C[C@@H]2O`, the GI50 was inactive: 7.76 µM.
In the case of `C=C1C(=O)OC2/C=C(\C)CC(O)/C=C(/CO)CC(OC(=O)/C(C)=C/C)C12` (configuration not stated), the GI50 is reported as inactive: 114 µM.
`O=C(c1ccccc1)C1C(c2ccccc2[N+](=O)[O-])N1C1CCCCC1` (configuration not stated) was tested, and the GI50 was inactive: 14.9 µM.
`O=C(O)CSc1cc(-c2ccccc2)nc2ccccc12` was tested, and the GI50 was inactive: 43.8 µM.
`COc1ccccc1NC(=O)C1=C(C)NC(C)=C(C(=O)Nc2ccccc2OC)C1C1=CC=COC1` was tested, and the GI50 was inactive: 19.7 µM.
In the case of `O=C(CSc1nc2ccc(I)cc2c(=O)n1Cc1ccccc1)NNC(=S)Nc1ccccc1`, the GI50 is reported as inactive: 16.4 µM.
With `O=C(CCCN1CC=C(n2c(=O)[nH]c3ccccc32)CC1)c1cccs1` the GI50 was inactive: > 100 µM.
`CC(=O)OCC1OC(O[C@@H]2c3c(O)c4c(c(O)c3C3=C(NN(c5ccc([N+](=O)[O-])cc5[N+](=O)[O-])[Se]3=O)[C@@]2(C)O)C(=O)c2ccccc2C4=O)C(OC(C)=O)C(OC(C)=O)C1OC(C)=O` (some centres not stated) was tested, and the GI50 was active: 0.232 µM.
In the case of `COC(=O)/C(=N\N)C(C(=O)C(=O)Nc1cc(Cl)ccc1Cl)c1nc2ccc([N+](=O)[O-])cc2nc1O` (configuration not stated), the GI50 is reported as inactive: > 100 µM.
For `COc1ccccc1NC(=O)C1=C(C)NC(C)=C(C(=O)Nc2ccccc2OC)C1c1ccc(C)cc1`, the GI50 was inactive: > 100 µM.
For `COc1ccc(/C=C2\Sc3nnc(C)n3N=C2c2cc(F)c(Cl)cc2Cl)cc1OC`, the GI50 was inactive: 18 µM.
In the case of `CC(=O)n1nc(-c2[nH]c(C)c(-c3nn(C(C)=O)c(=S)o3)c2C)oc1=S`, the GI50 is reported as inactive: > 100 µM.
With `COc1ccc(/C(=N/N=c2[nH]c3ccccc3[nH]2)C(=O)O)cc1` the GI50 was inactive: > 100 µM.
For `C=CCC(C(=O)Nc1cccc2nc[nH]c12)C(=O)OCC` (configuration not stated), the GI50 was inactive: > 100 µM.
With `CC(=O)OCC1OC(n2c3c(c(-c4cccc5ccccc45)c(C#N)c2=S)CCCC3)C(OC(C)=O)C(OC(C)=O)C1OC(C)=O` (configuration not stated) the GI50 was inactive: > 100 µM.
For `Cc1ccc(S(=O)(=O)CC2(Br)CCc3ccccc3C2=O)cc1` (configuration not stated), the GI50 was inactive: > 100 µM.
For `NC(=O)C(c1ccccc1)N1CCOCC1` (configuration not stated), the GI50 was inactive: > 100 µM.
In the case of `O=c1n(CCO)nc2n1CCCN2`, the GI50 is reported as inactive: > 100 µM.
`COc1cc2c(cc1OC)C(=O)/C(=C/c1ccc([N+](=O)[O-])cc1)CC2` was tested, and the GI50 was inactive: > 10 µM.
In the case of `CCOC(=O)c1c(O)cc(=O)[nH]c1N1CCOCC1`, the GI50 is reported as inactive: > 100 µM.
`NC(=S)NS(=O)(=O)c1ccc(F)cc1F` was tested, and the GI50 was inactive: > 100 µM.
`CCCCN1C(=O)C2Cc3c([nH]c4ccccc34)C(c3cccc(O)c3)N2C1=O` (configuration not stated) was tested, and the GI50 was inactive: 17.4 µM.
With `CCCNC(=O)N1CC(CN2CCN(c3ccccc3)CC2)O/C1=N/C(=O)Nc1ccccc1` (configuration not stated) the GI50 was inactive: > 100 µM.
With `CCOC(=O)C1=C(C)NC(c2ccccc2)=C(C(=O)OCc2ccccc2)C1C#Cc1ccccc1` (configuration not stated) the GI50 was inactive: > 100 µM.
`C=CCc1cc2cccc(OC)c2oc1=O` was tested, and the GI50 was inactive: > 100 µM.
In the case of `O=c1[nH]n(Cc2ccccc2)c2ccc([N+](=O)[O-])cc12`, the GI50 is reported as inactive: > 100 µM.
With `CN(C)CCNC(=O)c1cccc2c(NC(CCCNC(=N)N)C(=O)O)c3ccccc3[n+](C)c12` (configuration not stated) the GI50 was inactive: 91.6 µM.
For `COC(=O)/C=C(/C(=O)OC)c1c(C)cc2c(C)cc(C)cc(C)c1-2`, the GI50 was inactive: 31 µM.
With `CC/C=N\N1C(N)=C(C#N)C(C#N)(C#N)C1CC` (configuration not stated) the GI50 was inactive: > 100 µM.
In the case of `CCn1c(=O)c2nc(SC)sc2n(-c2ccccc2)c1=O`, the GI50 is reported as inactive: > 100 µM.
With `CCOC(=O)c1ccc(-c2cc(C)[nH]n2)[nH]1` the GI50 was inactive: > 100 µM.
For `CC(=O)Nc1ccc(NS(=O)(=O)c2ccc3nc(C)n(NS(=O)(=O)c4ccc(NC(C)=O)cc4)c(=O)c3c2)cc1`, the GI50 was inactive: > 100 µM.
`O=C(N[C@H]1c2ccsc2/C(=N/O)[C@H]1O)C(F)(F)F` was tested, and the GI50 was inactive: > 100 µM.
With `CCOC(=O)[C@@H]1[C@@H](c2ccccc2)N(C)O[C@@]1(c1ccccc1)C(F)(F)F` the GI50 was inactive: > 100 µM.
`CCCc1[nH]c(SCCCCCCCCSc2nc(-c3ccc(F)cc3)c(CCC)[nH]2)nc1-c1ccc(F)cc1` was tested, and the GI50 was inactive: 26.6 µM.
In the case of `CC(C)(C)C(=O)/C=C/c1ccc(Oc2ccccc2)cc1`, the GI50 is reported as inactive: 19.2 µM.
`O=C1C=CC(=O)C2C1Cc1ccccc1C2c1ccccc1` (configuration not stated) was tested, and the GI50 was inactive: > 100 µM.
`CCOP(=O)(OCC)/C(C#N)=C\c1ccsc1` was tested, and the GI50 was inactive: > 100 µM.
With `CCOc1ccc(N2C(=O)NC3(c4ccccc4)N(C)C(=O)N(C)C23c2ccccc2)cc1` (configuration not stated) the GI50 was inactive: > 100 µM.
With `COc1cccc(C(=O)Oc2ccc(OS(=O)(=O)c3ccc(C)cc3)cc2)c1C#N` the GI50 was inactive: 96.6 µM.
In the case of `O=[N+]([O-])c1ccc(C2=Nc3ccccc3[S+]([O-])C(c3ccccc3)C2)cc1` (configuration not stated), the GI50 is reported as inactive: 29.6 µM.
With `[O-][n+]1c(-c2ccccc2)c2nc3ccccc3nc2c2ccccc21` the GI50 was inactive: > 100 µM.
`COc1cccc(NC(=O)C(=O)C2C=CCS2(=O)=O)c1` (configuration not stated) was tested, and the GI50 was inactive: > 100 µM.
`CCCCCCCCCc1cc(=O)c2ccc(O)cc2o1` was tested, and the GI50 was inactive: > 100 µM.
`Cc1n[nH]c(=O)n1C1CCCC1` was tested, and the GI50 was inactive: > 100 µM.
In the case of `CCOC(=O)CNc1c(OCc2ccccc2)c(=O)c1=O`, the GI50 is reported as inactive: > 100 µM.
For `CC(C)C1=CC23CCC4C(C)(C(=O)O)CCCC4(C)C2CC1C(C(=O)O)C3C(=O)O` (configuration not stated), the GI50 was inactive: > 100 µM.
In the case of `Cc1[nH]c(O)nc1C(=O)c1ccc(-n2ccnc2)cc1`, the GI50 is reported as inactive: > 100 µM.
`[N-]=[N+]=NC1C(Br)C(=O)NC(=O)N1[C@H]1C[C@H](O)[C@@H](CO)O1` (some centres not stated) was tested, and the GI50 was inactive: > 100 µM.
For `Nc1c(C(=O)Nc2ccc(C3=NCCN3)cc2)cccc1C(=O)Nc1ccc(C2=NCCN2)cc1`, the GI50 was inactive: > 100 µM.

From ChEMBL document CHEMBL1201862, “PubChem BioAssay data set” (2004)
